Measured values reported in PubChem BioAssay AID686978 (National Center for Advancing Translational Sciences (NCATS), 2013).
Among all 420,000 compounds or so, about 64,000 (15%) were called active. The shares of active, inactive and inconclusive entries below differ from those in the screen. Calls come from the whole dose curve; as a rule, active = well fitted inhibition curve with a large enough effect; inconclusive = small, poorly fitted or top-dose-only effect; inactive = flat fitted curve, though single readings scatter. Potencies of inconclusive entries are left out as doubtful fits.

Test: qHTS for Inhibitors of human tyrosyl-DNA phosphodiesterase 1 (TDP1): qHTS in cells in absence of CPT; note: nearly all actives have a fitted effect of over 55% in size
Details: DT40 Tdp1-/- hTDP1 cells, no CPT, ATP luminescence, 48 h; activity change, negative = growth inhibition: at 46.2 µM (top of the series) unless noted
Method in brief: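 Stably hTDP1-transfected Tdp1-null chicken DT40 cells were treated with library compounds minus camptothecin and grown for at least 48 hr at 37 °C, after which cellular ATP was quantified by luminescence.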
% is set by controls: 0 for no effect and ±100 for the full control effect; potency is the fitted concentration of half-maximal effect; tags give direction and shape of the fitted curve.

SMILES	Potency	activity change, negative = growth inhibition
CN(CC(=O)Nc1ccc(F)cc1)C(=O)COc1ccccc1Cc1ccccc1	inconclusive [inhibitor, single point]	
Cc1ccc(N2C(=O)CC(NNc3nc4ccccc4s3)C2=O)cc1C (stereo not given)	inactive	
CC(C)(C)c1ccc(OCc2ccc(C(=O)NCc3cccnc3)o2)cc1	active: 8.2 µM	
COc1cc(OC)cc(OCC(O)Cn2ccnc2)c1 (stereo not given)	inactive	
O=C(Nc1ccc2nc(-c3cccs3)c(-c3cccs3)nc2c1)N1CCCC1	inconclusive [inhibitor, single point]	
CSc1nc(N)nc2c1ncn2Cc1ccccc1	inconclusive [inhibitor, partial curve]	
CCCCN(C)C(=O)CSc1c2c(nc3ccc(Cl)cc13)CCCC2	inconclusive [inhibitor, single point]	
Cc1ccccc1CN(C)CC(=O)Nc1c(C)cccc1C(C)C	active: 3.26 µM	
O=C(Nc1nccs1)c1ccc(COc2c(F)c(F)cc(F)c2F)cc1		inconclusive: -35.2% [inhibitor]
C1CCc2c(c(N3CCOCC3)nc3sc4c(N5CCOCC5)nnnc4c23)C1	inactive	
O=C(CSCc1ccccc1)N1CCc2ccccc21	inactive	
CCCCc1ncc(CN2CCC(n3nccc3NC(=O)c3ccccc3Cl)CC2)[nH]1	inactive	
Cc1cc([N+](=O)[O-])nn1CCCC(=O)N1CCN(c2ccc(F)cc2)CC1	inconclusive [inhibitor, single point]	
COCCn1c(=O)[nH]c2cc(C(=O)N3CCN(Cc4ccc5c(c4)OCO5)CC3)ccc2c1=O	inactive	
O=C(Nc1ccc2c(c1)CCC2)Nc1ccc2c(c1)OCO2	inactive	
Cc1ccccc1NC(=O)c1ccccc1NS(=O)(=O)c1cccc2cccnc12	inactive	
CC(=O)c1ccc(C(=O)N2CCC(CO)(Cc3cccc(C(F)(F)F)c3)CC2)cc1	inconclusive [inhibitor, single point]	
CC(=O)NC1CC2CCCC(C1)N2C(=O)Nc1c(C)cccc1C (stereo not given)	inactive	
Cc1nc(-c2ccc(C(=O)Nc3cc(S(N)(=O)=O)ccc3C)cc2)cs1		inconclusive: -32.9% [inhibitor]
COc1ccc(NC(=O)Cn2c(=O)n(-c3ccccc3)c(=O)c3oc4ccccc4c32)c(OC)c1	inconclusive [inhibitor, single point]	
COc1ccc(C(=O)/C=C/Nc2ccc(S(=O)(=O)Nc3nc(C)cc(C)n3)cc2)cc1OC	inconclusive [inhibitor, partial curve]	
COc1ccc(COC(=O)c2ccc(Cl)c(S(=O)(=O)N3CCOCC3)c2)cc1F	inconclusive [inhibitor, single point]	
Cc1ccccc1C(=O)Oc1cccc2c(O)cccc12	inconclusive [inhibitor, single point]	
Cc1cccc(Cn2c(=O)n(-c3cc(C)cc(C)c3)c(=O)c3oc4ccccc4c32)c1	active: 11.6 µM	

SMILES	Potency	activity change, negative = growth inhibition
COc1cc(OC)c(OC)cc1/C=C1\Oc2cc(OS(C)(=O)=O)ccc2C1=O	inactive	
COc1cccc(CN2C(=O)NC(C)(C3CCN(Cc4cc(F)cc(F)c4)CC3)C2=O)c1OC (stereo not given)	inconclusive [inhibitor, single point]	
CC(=O)N1CCC(N(CCN2CCOCC2)C(=S)Nc2cc(C)ccc2C)CC1	inconclusive [inhibitor, full curve, poor fit]	
COc1ccc(OCC(=O)NNC(=O)c2cccs2)cc1	inactive	
Cc1cccc(N2CCN(CCCNC(=O)Cn3ncc4c([nH]c5ccccc54)c3=O)CC2C)c1 (stereo not given)	active: 18.4 µM	
Cc1ccc(Cl)cc1N1CCN(C(=O)C2CCN(S(=O)(=O)c3cn(C)cn3)CC2)CC1	inconclusive [inhibitor, partial curve]	
O=c1c2ccccc2nc(SCc2ccccc2)n1Cc1ccco1	inconclusive [inhibitor, single point]	
NCCNc1ccc(C(=O)N2c3ccccc3Sc3ccccc32)cc1[N+](=O)[O-]	active: 18.4 µM	
Cc1nc2ccccc2c(=O)n1NC(=O)c1cccc([N+](=O)[O-])c1	inactive	
COc1ccc(OC(F)(F)F)cc1CC1(C)C(=O)Nc2c(Cl)ccc(Cl)c21 (stereo not given)	inconclusive [inhibitor, partial curve, poor fit]	
CSc1nnc(Cn2c(=O)sc3ccccc32)n1-c1ccccc1	active: 20.6 µM	
CCN(CC)C(=O)c1cn(C)c2ccc(S(=O)(=O)N(CC)CC)cc2c1=O	inactive	
CCCNC(=O)C1(CC2CC(c3ccccc3)=NO2)CCN(C(=O)OC(C)(C)C)CC1 (stereo not given)	inconclusive [inhibitor, single point]	
COc1ccc(C2=NOC(Cn3nc(C(=O)NCC4CC4)cc3-c3ccccc3)C2)cc1 (stereo not given)	inconclusive [inhibitor, single point]	
Cc1ccc(-c2nc3cccc(C)n3c2Nc2ccc3c(c2)OCCO3)cc1	inconclusive [inhibitor, single point]	
CCOc1ccc(S(=O)(=O)NCCC(=O)N(C)Cc2cccs2)cc1		inconclusive: -30.9% [inhibitor]
CN(CC1CCOCC1)C(=O)CC1C(=O)NCCN1C/C=C/c1ccccc1 (stereo not given)	inactive	
O=C(NC1CCN(S(=O)(=O)c2cccc(F)c2)CC1)c1cccc(F)c1	inactive	
COC(=O)Cn1nc(-c2ccc(C)c(S(=O)(=O)N(C)C)c2)c2ccccc2c1=O		inconclusive: -32.1% [inhibitor]
CC[C@@H](C)[C@@H](N)C1=N[C@H](C(=O)N[C@@H](CC(C)C)C(=O)N[C@@H](CCC(=O)O)C(=O)N[C@@H](C(=O)N[C@@H]2CCCCNC(=O)[C@@H](CC(N)=O)NC(=O)[C@@H](CC(=O)O)NC(=O)[C@@H](Cc3cnc[nH]3)NC(=O)[C@@H](Cc3ccccc3)NC(=O)[C@@H]([C@H](C)CC)NC(=O)[C@@H](CCCN)NC2=O)[C@@H](C)CC)CS1	inactive	
CC(C)NC(=O)CSc1nnc(-c2ccc(C(C)(C)C)cc2)n1C	inconclusive [inhibitor, single point]	
Cc1ccc(NC(=O)C[n+]2ccccc2)cc1C	inconclusive [inhibitor, single point]	
CCOc1ccc(CNn2nnnc2N)cc1	inconclusive [inhibitor, single point]	
CCn1c(SCCN2CCCCC2)nc2c1c(=O)n(C)c(=O)n2C	inactive	

SMILES	Potency	activity change, negative = growth inhibition
COc1ccc(C(=O)c2ccc(C)cc2)c(O)c1	inconclusive [inhibitor, single point]	
Cc1cc(C)n(-c2nc(NCc3cccnc3)c3c4c(sc3n2)COC(C)(C)C4)n1	inconclusive [inhibitor, single point]	
CCOc1ccc(CCNC(=O)COC(=O)c2ccc(F)c(S(=O)(=O)N3CCOCC3)c2)cc1OCC	inactive	
Cc1cccc(C)c1NC(=O)CCCSc1nnc(-c2ccco2)n1-c1ccccc1		inconclusive: -34.6% [inhibitor]
CCOCCCn1c(=N)c(C(=O)NC2CCCCC2)cc2c(=O)n3ccccc3nc21	inconclusive [inhibitor, partial curve]	
CC(=O)N1c2ccc(S(=O)(=O)NCCC(=O)Nc3ccc(F)cc3)cc2CC1C (stereo not given)	inconclusive [inhibitor, partial curve, poor fit]	
CC(=O)c1ccc(-c2ccc(C(=O)N3CCC(C(N)=O)CC3)o2)cc1	inactive	
COc1ccc(C2/C=C\CN(C(=O)Nc3ccccc3-c3ccccc3)CC(=O)N2Cc2ccc(F)cc2)cc1 (stereo not given)	inconclusive [inhibitor, single point]	
CCOC(=O)c1[nH]c2c(c1Cc1ccccc1C)C(=O)CC(c1ccccc1)C2 (stereo not given)	inconclusive [inhibitor, single point]	
CN(C)c1ccc(/C=C/c2ccnc3ccccc23)cc1N	active: 2.51 µM	
ClC(CCN1CCN(Cc2ccccc2)CC1)c1ccccc1 (stereo not given)	inconclusive [inhibitor, single point]	
CCN(CC)CCn1c(=N)n(CC(O)c2ccc(OC)c(OC)c2)c2ccccc21 (stereo not given)	inactive	
O=C(CSc1nc2ccccc2s1)Nc1cc(S(=O)(=O)N2CCOCC2)ccc1O	inactive	
O=C(O)c1cccc2c1/C(=N/Nc1ccc([N+](=O)[O-])cc1[N+](=O)[O-])c1ccccc1-2	inactive	
Cc1ccc(S(=O)(=O)c2c(CO)c(-c3ccccc3)nn2C)cc1	inconclusive [inhibitor, partial curve]	
CN(C)CCNC(=O)c1[nH]c(C(F)(F)F)nc1-c1ccccc1	inactive	
COc1ccccc1CCNC(=O)C(=O)NCC1OCCCN1S(=O)(=O)c1ccc(F)cc1C (stereo not given)	inconclusive [inhibitor, partial curve, poor fit]	
COc1ccc(C2C3C=CCC(c4cccc(-c5ccc(C)cc5)c4)C3C(=O)N2Cc2ccccc2)cc1Cl (stereo not given)	active: 13 µM	
COc1ccc(-c2cn3c(n2)sc2cc(C(=O)Nc4ccc(C)c(Cl)c4)ccc23)cc1	inactive	
Cc1ccc2nc(-c3ccsc3)c(NC3CCCC3)n2c1	active: 13 µM	
COc1ccc(Cl)cc1Cn1c(C)c(C(=O)NCc2cccc([N+](=O)[O-])c2)sc1=O	inconclusive [inhibitor, single point]	
COc1ccc(-c2csc(NC(=O)CN3C(=O)C4CC=CCC4C3=O)n2)cc1 (stereo not given)	inconclusive [inhibitor, partial curve]	
